{"source": "PubChem BioAssay AID1347428", "about": "(National Center for Advancing Translational Sciences (NCATS), 2020)", "note": "Among all 91,000 compounds or so, about 290 (0.32%) were called active. This list was built around the results that the source calls inconclusive (neither active nor inactive); the mix of calls is not that of the screen. Calls follow the shape of the dose curve; as a rule, active = well fitted inhibition curve with a large enough effect; inconclusive = small, poorly fitted or top-dose-only effect; inactive = no such curve, though single readings can be large or run the other way. A potency beside an inconclusive call is a rough fit, not a confirmed value."}
{"target": "Single-stranded DNA cytosine deaminase (Homo sapiens) (UniProt Q9GZX7)", "sequence (Q9GZX7 whole entry, looked up)": "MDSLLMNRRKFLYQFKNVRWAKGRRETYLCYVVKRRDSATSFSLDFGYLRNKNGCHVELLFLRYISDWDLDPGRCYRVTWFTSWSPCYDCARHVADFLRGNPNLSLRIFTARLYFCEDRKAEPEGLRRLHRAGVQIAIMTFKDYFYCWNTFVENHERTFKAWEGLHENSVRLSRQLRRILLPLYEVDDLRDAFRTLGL", "experiment": "Primary qHTS assay for inhibitors of Activation Induced Cytidine Deaminase (AID): AID signal; also: nearly all actives have a fitted effect of over 25% in size; also: potency is read from the fitted curve at half-maximal effect; tags tell the direction and shape of the fitted curve; as to activity change, negative = inhibition: % is scaled to controls: 0 for no effect and ±100 for the full control effect", "conditions": "AID deamination FRET fluorescence, UDG-coupled, 4 h; activity change, negative = inhibition: at 115 µM (top of the series)"}
{"compound": "CCn1nc(C)c2c(-c3ccccc3)cc(=O)n(C(C)C(=O)NCCc3ccc(Cl)cc3)c21", "note": "(centres undefined)", "Potency": "inconclusive: 22.4 µM [inhibitor, single point]"}
{"compound": "COc1ccc(CNC(=O)CN2C(=O)CCn3nc(-c4cn(C)c5ccccc45)cc32)cc1", "Potency": "inconclusive: 89.1 µM [inhibitor, single point]"}
{"compound": "Cc1cc2oc(=O)c(CC(=O)O)c(C)c2c2occ(-c3ccccc3)c12", "Potency": "inconclusive: 89.1 µM [inhibitor, partial curve, poor fit]"}
{"compound": "Cc1ccc2c(C)c(C(=O)N(Cc3ccc(N(C)C)cc3)Cc3ccco3)oc2c1C", "Potency": "inconclusive: 100 µM [inhibitor, partial curve, poor fit]"}
{"compound": "CC(C)Oc1ccc(C(=O)NCC(c2ccc(N(C)C)cc2)N2CCc3ccccc32)cc1", "note": "(centres undefined)", "Potency": "inconclusive: 28.2 µM [inhibitor, partial curve, poor fit]"}
{"compound": "Cc1ccc(-c2csc(NC(=O)c3cc(=O)c4ccccc4o3)n2)cc1C", "Potency": "inconclusive: 39.8 µM [inhibitor, partial curve, poor fit]"}
{"compound": "CCOC(=O)c1[nH]c2c(c1Cc1ccccc1)C(=O)CC(c1ccccc1)C2", "note": "(centres undefined)", "Potency": "inconclusive: 22.4 µM [inhibitor, full curve]"}
{"compound": "Cc1nc(-c2ccc(F)cc2)sc1CCNC(=O)c1cccs1", "Potency": "inconclusive: 28.2 µM [inhibitor, full curve, poor fit]"}
{"compound": "CN1CCN(c2nc3c(S(=O)(=O)c4ccc(Cl)cc4)nnn3c3ccsc23)CC1", "Potency": "inconclusive: 50.1 µM [inhibitor, partial curve, poor fit]"}
{"compound": "Cc1cc(C)cc(NC(=O)CSc2ccc(-c3cccs3)nn2)c1", "activity change, negative = inhibition": "inactive: 27.2%"}
{"compound": "Cc1ccc(Nc2nc(N)nc(CSc3nc4ccccc4s3)n2)cc1", "Potency": "inconclusive: 31.6 µM [inhibitor, partial curve, poor fit]"}
{"compound": "Cc1ccc(NS(=O)(=O)c2cc(C(=O)O)cc3c2CCC3)cc1F", "activity change, negative = inhibition": "inactive: 5.36%"}
{"compound": "O=c1[nH]c2ccc(Br)cc2c(-c2ccccc2)c1CN1CCCCC1", "Potency": "inconclusive: 50.1 µM [inhibitor, partial curve, poor fit]"}
{"compound": "COc1cccc(N2CCN(C(=O)c3cnn(-c4ccccc4Cl)c3C3CCN(C(=O)OC(C)(C)C)CC3)CC2)c1", "Potency": "inconclusive: 44.7 µM [inhibitor, partial curve, poor fit]"}
{"compound": "CN(C)c1nc(N)nc(COc2ccccc2Cl)n1", "activity change, negative = inhibition": "inactive: 1.82%"}
{"compound": "COc1ccccc1NC(=O)CN1C(=O)C(c2ccc(F)cc2)=NC12CCCCC2", "Potency": "inconclusive: 35.5 µM [inhibitor, partial curve]"}
{"compound": "CCOc1ccc(C(=O)Nc2cc(C(F)(F)F)ccc2Cl)cc1Cl", "activity change, negative = inhibition": "inactive: 3.9%"}
{"compound": "COc1cccc(C(=O)N(Cc2nc(-c3ccc(Cl)cc3)no2)C(C)C)c1OC", "Potency": "inconclusive: 20 µM [inhibitor, full curve]"}
{"compound": "CSc1ccc(CCNC(=O)CCCn2c(=O)c3cccn3c3ccccc32)cc1", "Potency": "inconclusive: 15.8 µM [inhibitor, full curve, poor fit]"}
{"compound": "Cc1nc(NC(=O)c2ccccc2)sc1-c1csc(Nc2ccccc2Cl)n1", "Potency": "inconclusive: 44.7 µM [inhibitor, partial curve, poor fit]"}
{"compound": "Cc1nn2c(C)c(C(=O)NCCc3ccccc3)cnc2c1-c1ccccc1", "Potency": "inconclusive: 44.7 µM [inhibitor, partial curve, poor fit]"}
{"compound": "COc1ccc(C(=O)N(Cc2ccco2)Cc2ccc(C)o2)cc1", "activity change, negative = inhibition": "inactive: 17.1%"}
{"compound": "CCCCCCCCc1cnc(-c2ccc(O)cc2)nc1", "activity change, negative = inhibition": "inactive: 2.8%"}
{"compound": "O=C(Nc1cccc(CO)c1)c1cccc2cccnc12", "Potency": "inconclusive: 89.1 µM [inhibitor, single point]"}
{"compound": "CCOc1ccc(/C=C/C(=O)Nc2ccc3nc(N(CC)CC)cc(C)c3c2)cc1OC", "Potency": "inconclusive: 17.8 µM [inhibitor, full curve, poor fit]"}
{"compound": "O=C(CCNS(=O)(=O)c1ccc2c(c1)CCN2C(=O)C1CC1)N1CCN(c2cccc(Cl)c2)CC1", "Potency": "inconclusive: 7.94 µM [inhibitor, full curve, poor fit]"}
{"compound": "O=C(CN1CCN(C(=O)c2ccc3ccccc3c2)CC1)Nc1ccccc1Cl", "Potency": "inconclusive: 100 µM [inhibitor, partial curve, poor fit]"}
{"compound": "Cc1cccc(N(C)S(=O)(=O)c2cc(-c3cnc(C4CC4)o3)ccc2C)c1", "Potency": "inconclusive: 39.8 µM [inhibitor, full curve, poor fit]"}
{"compound": "COc1cc(C(c2c(C)[nH][nH]c2=O)c2c(C)[nH][nH]c2=O)ccc1OC(=O)c1ccccc1OC", "Potency": "inconclusive: 70.8 µM [inhibitor, partial curve, poor fit]"}
{"compound": "O=C(CN1C(=O)CCSc2ccc(S(=O)(=O)N3CCCC3)cc21)Nc1cccc(F)c1", "Potency": "inconclusive: 89.1 µM [inhibitor, single point]"}
{"compound": "Cc1ccccc1C(=O)N1CCN(c2oc(-c3ccc(F)cc3)nc2C#N)CC1", "activity change, negative = inhibition": "inactive: -11.3%"}
{"compound": "CC(C)(C)OC(=O)N1CCC(c2c(C(=O)N3CCN(Cc4ccccc4)CC3)cnn2-c2cccc(Cl)c2)CC1", "Potency": "inconclusive: 35.5 µM [inhibitor, full curve]"}
{"compound": "COc1cccc(C(=O)NCC(c2ccc(N(C)C)cc2)N2CCc3ccccc32)c1", "note": "(centres undefined)", "Potency": "inconclusive: 14.1 µM [inhibitor, partial curve, poor fit]"}
{"compound": "COc1cccc(NC(=O)CCN2CCN(c3ccccc3)CC2)c1", "activity change, negative = inhibition": "inactive: -16.9%"}
{"compound": "O=C(/C=C/C=C/c1ccco1)c1ccc(N2CCOCC2)cc1", "activity change, negative = inhibition": "inactive: -25%"}
{"compound": "Cc1ccc(CN2CCc3nc(Nc4ccc5c(c4)OCCO5)ncc3C2)cc1", "Potency": "inconclusive: 89.1 µM [inhibitor, single point]"}
{"compound": "C#CCSc1nc(-c2ccccc2)cc(-c2ccccc2)c1C#N", "Potency": "inconclusive: 31.6 µM [inhibitor, partial curve, poor fit]"}
{"compound": "COc1ccc(NC(=O)c2ccc3c(SCC(=O)O)c4c(nc3c2)CCCC4)c(OC)c1", "Potency": "inconclusive: 89.1 µM [inhibitor, partial curve, poor fit]"}
{"compound": "CCOc1cccc(C2c3[nH]c4ccccc4c3CCN2C(=O)CSCc2ccc(F)cc2)c1", "note": "(centres undefined)", "Potency": "inconclusive: 35.5 µM [inhibitor, partial curve, poor fit]"}
